From publication PMC9911399, “Two distinct binding modes provide the RNA-binding protein RbFox with extraordinary sequence specificity” come the findings set out here.

Where a chain is given by its changes, count along the chain named. The list shows a part of the results.

T1: RBFOX1 RRM RbFoxmut (Fox-RRM*) (Homo sapiens, UniProt Q9NWB1 109-208, R118D;E147R;N151S;E152T)
T1 sequence: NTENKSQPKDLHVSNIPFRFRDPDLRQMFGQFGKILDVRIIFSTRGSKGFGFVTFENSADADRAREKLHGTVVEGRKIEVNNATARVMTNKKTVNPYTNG

B1: GAAUCUG (DNA:RNA)
RNA: GGGAGACCGGAAUUCAGAUUGUCCGAAUCUGUUAAAUCCCGUCGUAGCCACCA
DNA 1: CAATCTGAATTCCGGTCTCCC
DNA 2: TGGTGGCTACGACGGGATT
B2: ACGGCGG (DNA:RNA)
RNA: B1 RNA with G25A, A26C, A27G, U28G, U30G
DNA 1: CAATCTGAATTCCGGTCTCCC
DNA 2: TGGTGGCTACGACGGGATT
B3: ACAAUUG (DNA:RNA)
RNA: B1 RNA with G25A, A26C, U28A, C29U
DNA 1: CAATCTGAATTCCGGTCTCCC
DNA 2: TGGTGGCTACGACGGGATT
B4: GGACGGC (DNA:RNA)
RNA: B1 RNA with A26G, U28C, C29G, U30G, G31C
DNA 1: CAATCTGAATTCCGGTCTCCC
DNA 2: TGGTGGCTACGACGGGATT
B5: GAGGGGU (DNA:RNA)
RNA: B1 RNA with A27G, U28G, C29G, U30G, G31U
DNA 1: CAATCTGAATTCCGGTCTCCC
DNA 2: TGGTGGCTACGACGGGATT
B6: CUAACCG (DNA:RNA)
RNA: B1 RNA with G25C, A26U, U28A, U30C
DNA 1: CAATCTGAATTCCGGTCTCCC
DNA 2: TGGTGGCTACGACGGGATT
B7: UACUUAC (DNA:RNA)
RNA: B1 RNA with G25U, A27C, C29U, U30A, G31C
DNA 1: CAATCTGAATTCCGGTCTCCC
DNA 2: TGGTGGCTACGACGGGATT
B8: GUCAAAG (DNA:RNA)
RNA: B1 RNA with A26U, A27C, U28A, C29A, U30A
DNA 1: CAATCTGAATTCCGGTCTCCC
DNA 2: TGGTGGCTACGACGGGATT
B9: AAUAGUA (DNA:RNA)
RNA: B1 RNA with G25A, A27U, U28A, C29G, G31A
DNA 1: CAATCTGAATTCCGGTCTCCC
DNA 2: TGGTGGCTACGACGGGATT
B10: UCGACGA (DNA:RNA)
RNA: B1 RNA with G25U, A26C, A27G, U28A, U30G, G31A
DNA 1: CAATCTGAATTCCGGTCTCCC
DNA 2: TGGTGGCTACGACGGGATT
B11: CCUCCUA (DNA:RNA)
RNA: B1 RNA with G25C, A26C, A27U, U28C, G31A
DNA 1: CAATCTGAATTCCGGTCTCCC
DNA 2: TGGTGGCTACGACGGGATT
B12: UUGAAUC (DNA:RNA)
RNA: B1 RNA with G25U, A26U, A27G, U28A, C29A, G31C
DNA 1: CAATCTGAATTCCGGTCTCCC
DNA 2: TGGTGGCTACGACGGGATT
B13: CCAAUUG (DNA:RNA)
RNA: B1 RNA with G25C, A26C, U28A, C29U
DNA 1: CAATCTGAATTCCGGTCTCCC
DNA 2: TGGTGGCTACGACGGGATT
B14: ACUUCAU (DNA:RNA)
RNA: B1 RNA with G25A, A26C, A27U, U30A, G31U
DNA 1: CAATCTGAATTCCGGTCTCCC
DNA 2: TGGTGGCTACGACGGGATT
B15: CAUUCCG (DNA:RNA)
RNA: B1 RNA with G25C, A27U, U30C
DNA 1: CAATCTGAATTCCGGTCTCCC
DNA 2: TGGTGGCTACGACGGGATT
B16: ACAGUGC (DNA:RNA)
RNA: B1 RNA with G25A, A26C, U28G, C29U, U30G, G31C
DNA 1: CAATCTGAATTCCGGTCTCCC
DNA 2: TGGTGGCTACGACGGGATT
B17: GUACCUU (DNA:RNA)
RNA: B1 RNA with A26U, U28C, G31U
DNA 1: CAATCTGAATTCCGGTCTCCC
DNA 2: TGGTGGCTACGACGGGATT
B18: ACAUGCA (DNA:RNA)
RNA: B1 RNA with G25A, A26C, C29G, U30C, G31A
DNA 1: CAATCTGAATTCCGGTCTCCC
DNA 2: TGGTGGCTACGACGGGATT
B19: GUUGUAA (DNA:RNA)
RNA: B1 RNA with A26U, A27U, U28G, C29U, U30A, G31A
DNA 1: CAATCTGAATTCCGGTCTCCC
DNA 2: TGGTGGCTACGACGGGATT
B20: GGAGCCA (DNA:RNA)
RNA: B1 RNA with A26G, U28G, U30C, G31A
DNA 1: CAATCTGAATTCCGGTCTCCC
DNA 2: TGGTGGCTACGACGGGATT
B21: AAAGCAU (DNA:RNA)
RNA: B1 RNA with G25A, U28G, U30A, G31U
DNA 1: CAATCTGAATTCCGGTCTCCC
DNA 2: TGGTGGCTACGACGGGATT
B22: ACAUGCG (DNA:RNA)
RNA: B1 RNA with G25A, A26C, C29G, U30C
DNA 1: CAATCTGAATTCCGGTCTCCC
DNA 2: TGGTGGCTACGACGGGATT
B23: GAUAGCU (DNA:RNA)
RNA: B1 RNA with A27U, U28A, C29G, U30C, G31U
DNA 1: CAATCTGAATTCCGGTCTCCC
DNA 2: TGGTGGCTACGACGGGATT
B24: UGUGCUC (DNA:RNA)
RNA: B1 RNA with G25U, A26G, A27U, U28G, G31C
DNA 1: CAATCTGAATTCCGGTCTCCC
DNA 2: TGGTGGCTACGACGGGATT
B25: UUCGGGA (DNA:RNA)
RNA: GGGAGACCGGAAUUCAGAUUGUCCUUCGGGAUUAAAUCCCGUCGUAGCCACCA
DNA 1: CAATCTGAATTCCGGTCTCCC
DNA 2: TGGTGGCTACGACGGGATT
B26: CUAUGAC (DNA:RNA)
RNA: B1 RNA with G25C, A26U, C29G, U30A, G31C
DNA 1: CAATCTGAATTCCGGTCTCCC
DNA 2: TGGTGGCTACGACGGGATT
B27: CCCCGAC (DNA:RNA)
RNA: B25 RNA with U25C, U26C, G28C, G30A, A31C
DNA 1: CAATCTGAATTCCGGTCTCCC
DNA 2: TGGTGGCTACGACGGGATT
B28: UGGUGAC (DNA:RNA)
RNA: B25 RNA with U26G, C27G, G28U, G30A, A31C
DNA 1: CAATCTGAATTCCGGTCTCCC
DNA 2: TGGTGGCTACGACGGGATT
B29: CUCCCUA (DNA:RNA)
RNA: B25 RNA with U25C, G28C, G29C, G30U
DNA 1: CAATCTGAATTCCGGTCTCCC
DNA 2: TGGTGGCTACGACGGGATT
B30: UGCGCCA (DNA:RNA)
RNA: B25 RNA with U26G, G29C, G30C
DNA 1: CAATCTGAATTCCGGTCTCCC
DNA 2: TGGTGGCTACGACGGGATT
B31: GAUUAGG (DNA:RNA)
RNA: B1 RNA with A27U, C29A, U30G
DNA 1: CAATCTGAATTCCGGTCTCCC
DNA 2: TGGTGGCTACGACGGGATT

In this assay the target is T1, RBFOX1 RRM RbFoxmut (Fox-RRM*). The assay is described as follows: EMSA; HiTS-Eq, 1 nM pool, 10 min; buffer printed only for the single-RNA assays: 10 mM Tris pH 7.5, 150 mM NaCl, 3.4 mM EDTA, 0.001% NP-40, 30 C. To be noted: tags: His6 N-terminal (pET28a); label: 5' 32P. The method in brief:
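A pool of RNA with 7 randomized nucleotides, 5′-radiolabelled and with DNA-annealed flanks, was equilibrated at 1 nM for 10 min in 50 µL with purified RbFox RRM, wild type or mutant, across increasing protein concentrations. Free RNA was separated by 8% native PAGE, excised, reverse-transcribed, barcoded by PCR and sequenced. Relative association constants were obtained from read-count changes of each RNA species versus the control reaction and normalised to the cognate motif.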
For orientation: A gel shift assay detects complexes by their altered migration in electrophoresis.
B1: the binding signal was 0.197 KA relative to UGCAUGU.

Take B2: the binding signal was 0.0875 KA relative to UGCAUGU.

For the molecule B3, the binding signal is 0.0827 KA relative to UGCAUGU.

B4: the binding signal was 0.0886 KA relative to UGCAUGU.

Consider B5, for which the binding signal was 0.0938 KA relative to UGCAUGU.

As to B6, the binding signal was 0.124 KA relative to UGCAUGU.

As for B7, the binding signal is 0.103 KA relative to UGCAUGU.

For B8, the binding signal is 0.0829 KA relative to UGCAUGU.

Consider B9, for which the binding signal is 0.151 KA relative to UGCAUGU.

For the molecule B10, the binding signal was 0.0457 KA relative to UGCAUGU.

On to B11, for which the binding signal is 0.0593 KA relative to UGCAUGU.

For the molecule B12, the binding signal is 0.374 KA relative to UGCAUGU.

As to B13, the binding signal was 0.0976 KA relative to UGCAUGU.

Turning to B14, the binding signal was 0.0922 KA relative to UGCAUGU.

In the case of B15, the binding signal was 0.0958 KA relative to UGCAUGU.

With B16, the binding signal is 0.111 KA relative to UGCAUGU.

As for B17, the binding signal is 0.0809 KA relative to UGCAUGU.

For B18, the binding signal was 0.223 KA relative to UGCAUGU.

With B19, the binding signal is 0.136 KA relative to UGCAUGU.

Turning to B20, the binding signal is 0.0854 KA relative to UGCAUGU.

Consider B21, for which the binding signal was 0.0838 KA relative to UGCAUGU.

On to B22, for which the binding signal is 0.139 KA relative to UGCAUGU.

On to B23, for which the binding signal was 0.0865 KA relative to UGCAUGU.

On to B24, for which the binding signal was 0.0915 KA relative to UGCAUGU.

As to B25, the binding signal is 0.0532 KA relative to UGCAUGU.

Consider B26, for which the binding signal was 0.0722 KA relative to UGCAUGU.

Regarding B27, the binding signal was 0.116 KA relative to UGCAUGU.

Consider B28, for which the binding signal is 0.0583 KA relative to UGCAUGU.

Consider B29, for which the binding signal was 0.0781 KA relative to UGCAUGU.

As to B30, the binding signal was 0.096 KA relative to UGCAUGU.

For the molecule B31, the binding signal was 0.0809 KA relative to UGCAUGU.
